± gives the standard deviation of the averaged measurements. Growth of baker's yeast expressing single-residue variants of Pneumocystis jirovecii dihydrofolate reductase in 8.8 or 44 µM methotrexate (about 75% and 90% inhibition of the wild type). Selection coefficient per generation; 0 = like wild type, above 0 = less sensitive, below 0 = more sensitive or loss of function. No active / inactive call per row; the paper calls resistant above 0.220 (8.8 µM) or 0.243 (44 µM) together with a significance test. At 44 µM about 15% of codons end with one read or none, so the lowest values are floors (replicate rank correlation 0.74; 0.94 at 8.8 µM).

First the molecules themselves.
B1: UniProt A0EPZ9; numbered along this chain (parent)
chain: MDWQKSLTLIVALTLSRGIGLKNDLPWKLKSDMMFFSRVTSGLLVTRSTGQMNVVLMGRKTWESLPAHSRPLKNRINVVISRQEVLDLGGGAYHARSLDDALALLSQIYDSTSKIQLNRVFVIGGGELCKAAMEHSRLNRIIATVIHNEVDCDVFFPIDFRSSQSCLPWRKQDHSVLEAWVGSKVPQGKINENGFIYEFEMWIRDI

Variants of B1 are the subject of this data set. The data set can be described thus: selection coefficient against synonymous wild-type codons (log2 per generation); higher = faster growth than wild type. The settings on record: with Saccharomyces cerevisiae carrying the variant on a plasmid. As to the method: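 Pooled growth of yeast carrying single-residue variants of P. jirovecii dihydrofolate reductase (own DFR1 gene intact), two passages at 30 °C, three cultures, sequenced before and after. Codons with under 15 starting reads are left out; codons of one change are averaged.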

As to G182M, the “selection coefficient against synonymous wild-type codons (log2)” value (“selection coefficient … (log2)” below) (methotrexate 8.8 µM) was -0.273 ± 0.017 and the “selection coefficient … (log2)” value (methotrexate 44 µM) was -0.313 ± 0.17.
For L104D the same measures were -0.632 ± 0.1 and -0.266 ± 0.05.
For L104K the same measures were -0.13 ± 0.031 and -0.191 ± 0.16.
In the same order, the values of L56P are -0.526 ± 0.079 and -0.299 ± 0.056.
Take H68N: the “selection coefficient … (log2)” value was determined as 0.0281 ± 0.073 (methotrexate 8.8 µM) and 0.135 ± 0.068 (methotrexate 44 µM).
In the same order, the values of H68V are -0.202 ± 0.076 and -0.107 ± 0.054.
Turning to H68M, the “selection coefficient … (log2)” value runs as follows: (methotrexate 8.8 µM) -0.244 ± 0.018; (methotrexate 44 µM) -0.0649 ± 0.039.
For S163C the same measures were -0.118 ± 0.068 and -0.169 ± 0.03.
For W202A the same measures were -0.254 ± 0.11 and -0.133 ± 0.045.
For M52F the same measures were -0.105 ± 0.029 and -0.119 ± 0.019.
As to F35H, the “selection coefficient … (log2)” value by setting is: (methotrexate 8.8 µM) 0.459 ± 0.044; (methotrexate 44 µM) 0.473 ± 0.023.
In the same order, the values of V176F are -0.122 ± 0.018 and -0.215 ± 0.049.
For I76L the same measures were -0.219 ± 0.078 and -0.184 ± 0.098.
For I76E the same measures were -0.619 ± 0.12 and -0.261 ± 0.046.
With I76P, the “selection coefficient … (log2)” value was -0.658 ± 0.04 (methotrexate 8.8 µM) and -0.155 ± 0.053 (methotrexate 44 µM).
On to L72Q, for which the “selection coefficient … (log2)” value is 0.108 ± 0.073 (methotrexate 8.8 µM) and 0.219 ± 0.089 (methotrexate 44 µM).
For the variant L72R, the “selection coefficient … (log2)” value reads like this: (methotrexate 8.8 µM) -0.505 ± 0.047; (methotrexate 44 µM) -0.221 ± 0.08.
For L72A the same measures were 0.227 ± 0.064 and 0.373 ± 0.065.
As for N77H, the “selection coefficient … (log2)” value is -0.055 ± 0.05 (methotrexate 8.8 µM) and -0.0473 ± 0.18 (methotrexate 44 µM).
For N77E the same measures were -0.0531 ± 0.037 and 0.152 ± 0.058.
For S175Y the same measures were -0.311 ± 0.052 and -0.231 ± 0.14.
In the same order, the values of S175V are -0.246 ± 0.086 and -0.29 ± 0.14.
For the variant S175F, the “selection coefficient … (log2)” value runs as follows: (methotrexate 8.8 µM) -0.326 ± 0.064; (methotrexate 44 µM) -0.315 ± 0.13.
For F199G the same measures were 0.372 ± 0.042 and 0.608 ± 0.058.
For I108R the same measures were -0.256 ± 0.064 and -0.238 ± 0.12.
In the same order, the values of I108V are -0.185 ± 0.041 and -0.146 ± 0.14.
Take D151N: the “selection coefficient … (log2)” value (methotrexate 8.8 µM) was -0.0556 ± 0.058 and the “selection coefficient … (log2)” value (methotrexate 44 µM) was -0.137 ± 0.044.
In the same order, the values of Y197Q are -0.205 ± 0.1 and -0.214 ± 0.0094.
In the same order, the values of Y197M are -0.187 ± 0.072 and -0.269 ± 0.023.
For Y197A the same measures were -0.151 ± 0.086 and -0.14 ± 0.13.
As for R17E, the “selection coefficient … (log2)” value (methotrexate 8.8 µM) was determined as 0.377 ± 0.05 and the “selection coefficient … (log2)” value (methotrexate 44 µM) came out at 0.392 ± 0.018.
Turning to A95M, the “selection coefficient … (log2)” value reads like this: (methotrexate 8.8 µM) -0.681 ± 0.15; (methotrexate 44 µM) -0.272 ± 0.16.
For the variant A95S, the “selection coefficient … (log2)” value is -0.423 ± 0.13 (methotrexate 8.8 µM) and -0.181 ± 0.12 (methotrexate 44 µM).
For R82T, the “selection coefficient … (log2)” value by setting is: (methotrexate 8.8 µM) -0.152 ± 0.069; (methotrexate 44 µM) -0.204 ± 0.063.
For R82S the same measures were -0.0674 ± 0.03 and -0.0588 ± 0.068.
For R82G the same measures were -0.195 ± 0.045 and -0.273 ± 0.14.
Take K22F: the “selection coefficient … (log2)” value is, setting by setting: (methotrexate 8.8 µM) -0.107 ± 0.053; (methotrexate 44 µM) 0.0282 ± 0.029.
In the same order, the values of G50V are -0.0301 ± 0.061 and -0.00888 ± 0.064.
For G50M the same measures were -0.212 ± 0.057 and -0.248 ± 0.1.
For Q51V the same measures were -0.097 ± 0.031 and -0.099 ± 0.17.
Regarding S136I, the “selection coefficient … (log2)” value was -0.177 ± 0.037 (methotrexate 8.8 µM) and -0.174 ± 0.13 (methotrexate 44 µM).
In the same order, the values of S136Q are -0.0128 ± 0.021 and -0.062 ± 0.065.
For S136V the same measures were -0.12 ± 0.031 and -0.1 ± 0.091.
For N53K the same measures were -0.396 ± 0.12 and -0.432 ± 0.049.
G18P: the “selection coefficient … (log2)” value reads like this: (methotrexate 8.8 µM) -0.313 ± 0.11; (methotrexate 44 µM) -0.115 ± 0.13.
Regarding G18V, the “selection coefficient … (log2)” value runs as follows: (methotrexate 8.8 µM) -0.14 ± 0.069; (methotrexate 44 µM) -0.0159 ± 0.13.
As for A143Q, the “selection coefficient … (log2)” value is, setting by setting: (methotrexate 8.8 µM) -0.132 ± 0.026; (methotrexate 44 µM) 0.0133 ± 0.034.
For R204Q the same measures were -0.141 ± 0.14 and -0.171 ± 0.14.
In the same order, the values of I158T are 0.00976 ± 0.053 and 0.0219 ± 0.077.
For I158D the same measures were 0.0369 ± 0.035 and -0.000802 ± 0.065.
As for L86Y, the “selection coefficient … (log2)” value reads like this: (methotrexate 8.8 µM) -0.245 ± 0.045; (methotrexate 44 µM) -0.296 ± 0.045.
For L29D the same measures were 0.264 ± 0.053 and 0.244 ± 0.074.
R70I: the “selection coefficient … (log2)” value reads like this: (methotrexate 8.8 µM) -0.174 ± 0.064; (methotrexate 44 µM) -0.0237 ± 0.0034.
For A132V the same measures were 0.0796 ± 0.028 and 0.144 ± 0.038.
For A132Y the same measures were -0.566 ± 0.14 and -0.392 ± 0.029.
Regarding A132K, the “selection coefficient … (log2)” value runs as follows: (methotrexate 8.8 µM) -0.687 ± 0.1; (methotrexate 44 µM) -0.314 ± 0.049.
In the same order, the values of K171T are -0.101 ± 0.066 and -0.144 ± 0.09.
In the same order, the values of K171N are -0.122 ± 0.062 and -0.149 ± 0.072.

Source of the values: the supplement of paper PMC11125491.
